# Results from PubChem BioAssay AID1508623 (National Center for Advancing Translational Sciences (NCATS), 2021).
# In all, about 48,000 compounds went through this assay and about 450 (0.94%) were called active. Not shown: some 19% with an inconclusive outcome. Calls follow the shape of the dose curve; as a rule, active = well fitted inhibition curve with a large enough effect; inconclusive = small, poorly fitted or top-dose-only effect; inactive = no such curve, though single readings can be large or run the other way. The list shows a part of the results.
# Assay: Primary qHTS for Identification of Small Molecule Inhibitors of Huntingtin Promoter Activity; also: nearly all actives have a fitted effect of over 50% in size
# Conditions: HEK293 HTT promoter firefly luciferase reporter (activity 0% = vehicle and -100% = no light), 24 h; series mostly up to 57.5 µM; activity change, negative = inhibition: at the top concentration
# Method in brief: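 Firefly luciferase readout (Dual-Glo, 10 min RT) after 24 h, 37 °C compound exposure (final up to 57.5 uM) of HEK293 reporter cells cultured 24 h beforehand; PTC124 at 50 uM final as control inhibitor; activity scaled vehicle 0%, zero RLU -100%.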
# Potency is read from the fitted curve at half-maximal effect.
Compound,"activity change, negative = inhibition",Potency
C[N+]1(C)[C@@H]2C[C@@H](OC(=O)C(O)(c3cccs3)c3cccs3)C[C@H]1[C@@H]1O[C@@H]12,inactive: 0.264%,
COc1ccc(CNC(=O)C(C)n2ccc3cc(S(=O)(=O)N4CCCC4)ccc32)cc1OC (centres undefined),inactive: -20.7%,
COc1ccccc1NC(=O)C1=C(C)Nc2nc(SCc3ccccc3C)nn2C1CC(C)C (centres undefined),inactive: -4.24%,
COc1ccc(-n2ncc(C(=O)N3CCc4ccccc4C3)c2C2CCN(C(=O)OC(C)(C)C)CC2)cc1,inactive: 7.28%,
CCc1ccc2oc(C(=O)Nc3nonc3CC)c(C)c2c1,inactive: 34.4%,
CC(C(=O)O)c1ccc2c(c1)Cc1cccnc1O2 (centres undefined),inactive: 8.13%,
Cc1oc2ncn(C)c(=O)c2c1C(=O)NCCCN1CCCC(C)C1 (centres undefined),inactive: 0%,
C[C@H]1COc2c(C3(N)CC3)c(F)cc3c(=O)c(C(=O)O)cn1c23,inactive: 2.24%,
O=C(Nc1ccc(Br)cc1F)c1ncoc1-c1ccco1,inactive: 11.5%,
COC(=O)[C@@H]1CC2=CC(=O)CC[C@]2(C)[C@@]23O[C@@H]2C[C@@]2(C)[C@H](CC[C@@]24CCC(=O)O4)[C@@H]13,inactive: 9.06%,
O=C(COc1ccccc1)N(Cc1cccnc1)c1nc2ccc(F)cc2s1,inactive: 22.7%,
CCOc1cc(-c2nc(-c3ccc(Br)cc3)no2)cc(OCC)c1OCC,inactive: 6.51%,
COc1ccc(-c2cc(C(F)(F)F)n3nc(C(=O)NCC45CC6CC(CC(C6)C4)C5)cc3n2)cc1,inactive: -5.28%,
O=C(CN1C(=O)COc2ccc(S(=O)(=O)N3CCOCC3)cc21)N1CCN(c2ccccc2)CC1,inactive: -0.285%,
COCCCNC(=O)c1ccc2c(=O)n(Cc3ccc(OC)cc3)c(=O)[nH]c2c1,inactive: -2.59%,
CSc1ccc2c(c1)C(N1CCN(C)CC1)Cc1ccccc1S2 (centres undefined),inactive: -18.9%,
Cc1nc(-c2ccc(C)c(S(=O)(=O)N3CCC(C(=O)NCc4ccc(Cl)cc4)CC3)c2)no1,inactive: -30%,
COc1ccc(CCNC(=O)C2CCCN(c3nc4c(C)cc(C)cc4s3)C2)cc1OC (centres undefined),inactive: -10.9%,
Cc1ccc(S(=O)(=O)C(CNC(=O)c2ccccc2F)c2cccs2)cc1 (centres undefined),inactive: -22.4%,
Cc1cccc(CSc2nc3c(c(=O)[nH]2)C(c2cccc(O)c2)CC(=O)N3)c1 (centres undefined),inactive: -22.4%,
CCOC(=O)c1c(NC(=O)c2cc(C(C)C)on2)sc(C)c1C,inactive: 7.89%,
COc1ccc(C2=C(C)C(=O)N(Cc3ccc(C(=O)NCc4ccc(C)cc4)cc3)S2(=O)=O)cc1,inactive: -12.9%,
CC(C)(C)C(=O)Oc1ccc(S(=O)(=O)Nc2ccccc2C(=O)NCC(=O)O)cc1,inactive,
Cc1cccc(CN2CCN(CC(=O)NCc3ccc(Cl)cc3)C2=O)c1,inactive: -12.5%,

Compound,"activity change, negative = inhibition",Potency
Cc1cc(C)c2oc(C(=O)Nc3c(C(=O)Nc4ccccc4)oc4ccccc34)cc(=O)c2c1,inactive: 15%,
CCCCn1cc(S(=O)(=O)c2ccc(Cl)cc2)c(=O)c2cc(F)c(N3CCCCC3)cc21,inactive: 12.8%,
COc1ccccc1CNC(=O)c1c(O)nc2cc(C)ccn2c1=O,inactive: -9.48%,
Cc1nc2ccc(S(=O)(=O)NC(C(=O)NCc3ccc(Cl)cc3)C(C)C)cc2s1 (centres undefined),inactive: -12.2%,
Cc1cccc(C(=O)Nc2ccccc2C(=O)OCc2cc(=O)n3nc(C4CC4)sc3n2)c1,inactive: -13.1%,
CCOC(=O)c1c(-c2ccc(OC)c(OC)c2)csc1NC(=O)c1ccc(F)cc1,inactive: 2.56%,
Cc1cc(C(C)(C)C)c(O)c(C)c1CC1=NCCN1,inactive,
COc1cccc(N2C(=O)CSC23C(=O)N(CC(=O)NCc2ccc(C)cc2)c2ccccc23)c1 (centres undefined),inactive: -13.2%,
CSC1=NC2(CCN(C(=O)NC3CCCCC3)CC2)N=C1c1ccc(C(C)(C)C)cc1,inactive: -24.3% [at 11.5 µM],
NC(Cc1ccc(Cl)cc1)C(=O)O (centres undefined),inactive: -0.968% [at 0.739 µM],
CCCN(CCC)CCCNC(=O)c1cn(CC)c2ccc(S(=O)(=O)N3CCc4ccccc4C3)cc2c1=O,inactive: -6.04%,
COc1cccc(CNCCSc2nnnn2C)c1OCc1ccc(Cl)cc1,inactive: -14.9%,
CN(C)CCCN1c2ccccc2Sc2ccccc21,inactive: -5.4%,
CCc1ccc(Cn2nnc(C(=O)Nc3ccc(C)cc3)c2N)cc1,inactive: 18.6%,
CCOC(=O)c1ccc2c(c1)N(CC(=O)Nc1ccc(CC)cc1)C(=O)c1ccccc1S2,inactive: -16.6%,
COc1cc(NC(=O)Cn2cnc3sc(C)c(S(=O)(=O)N4CCN(C)CC4)c3c2=O)cc(OC)c1OC,inactive: -3.66%,
Cc1ccc(Nc2c(-c3ccc(N4CCOCC4)cc3)nc3ncccn23)cc1C,inactive: -28.9%,
CCOc1cccc(C(=O)Nc2ccc(NC(=O)c3ccc(Br)cc3)cc2)c1,inactive: -32.1%,
CCOC(=O)c1oc2ccc(S(=O)(=O)n3nc(-c4cc(OCC)c(OCC)c(OCC)c4)cc3N)cc2c1C,inactive: -19.2%,
CCc1ccc(N2CCn3c2nc2c3c(=O)n(CCCc3ccccc3)c(=O)n2C)cc1,inactive: 1.91%,
CCOc1ccc(-c2nonc2NC(=O)COc2ccccc2)cc1,inactive: -18.4%,
CCCc1cnc2c(c1SCC(=O)Nc1cccc(C)c1C)c(=O)n(C)c(=O)n2C,inactive: -3.02%,
CCN1CCN(c2cc3c(cc2F)c(=O)c(S(=O)(=O)c2cc(C)cc(C)c2)cn3CC)CC1,inactive: -11.6%,
COc1ccc(NC(=O)Cn2nnc(C(=O)Nc3ccc(C)c(F)c3)c2N)cc1Cl,inactive: -23.7%,

Compound,"activity change, negative = inhibition",Potency
COc1ccc(CNC(=O)CN(c2ccc(OC)cc2)S(=O)(=O)c2c(C)[nH]c(=O)[nH]c2=O)cc1,inactive: -10%,
NS(=O)(=O)c1cc(C(=O)O)cc(N2CCCC2)c1Oc1ccccc1,inactive: -6.29%,
O=C(Cc1ccccc1F)N1CCC(c2nc3c(nnn3Cc3cccc(Cl)c3)c(=O)[nH]2)CC1,inactive: -37.8%,
Cc1cc(C)cc(OCCn2c(CCNC(=O)C3CCCCC3)nc3ccccc32)c1,inactive: -2.13%,
CCOc1ccc(NC(=O)c2c(NC(=O)c3ccccc3Br)sc3c2CCC(C)C3)cc1 (centres undefined),inactive: -4.33%,
CCOc1ccc(NC(=O)CC2C(=O)N(c3ccc(C)cc3)C(=O)N2Cc2ccc(OC)cc2)cc1 (centres undefined),inactive: -23.1%,
COc1ccc(OC)c(NC(=O)N(C)CCc2c(C)nn(C)c2C)c1,inactive: 16.9%,
CCC(=O)N1CCc2cc(Br)cc(S(=O)(=O)N(CC)Cc3ccccc3)c21,inactive: -3.43%,
Cc1cccc(N2CCN(c3ncnc4onc(C)c34)CC2C)c1 (centres undefined),,active: 12.6 µM
CCc1cccc(C)c1NC(=O)c1cn2c3c(ccc(Cl)c3c1=O)OC(C)C2 (centres undefined),inactive: -16.1%,
Cc1ccc(-c2nc3ncccc3o2)cc1NC(=O)c1ccc(-c2cccc(Cl)c2C)o1,inactive: -8.21%,
Cc1nc(-c2cccc(F)c2)sc1CCNC(=O)C(=O)Nc1ccc2c(c1)OCO2,inactive: -15.7%,
CCOc1ccc(S(=O)(=O)NCC(c2ccc(N(C)C)cc2)N2CCc3ccccc32)cc1 (centres undefined),inactive: -17.1%,
Cc1cc(-c2nc3ncccc3o2)ccc1NC(=O)c1ccc(Cl)cc1,inactive: 1.78%,
COC(=O)CSc1ccc2nnc(CCNS(=O)(=O)c3ccccc3)n2n1,inactive: -4.09%,
Cc1cccc(NC(=O)c2c(N)sc3c2CCC(C)C3)c1 (centres undefined),inactive: 40.8%,
Cc1ccccc1NC(=O)c1c(NC(=O)c2cccs2)sc2c1CCC(C)C2 (centres undefined),inactive: 3.15%,
O=C(Nc1ccc2nn(-c3ccc(Cl)cc3)nc2c1)c1cc2ccccc2o1,inactive: -20.2%,
COc1ccc(C(=O)NCC(c2ccco2)S(=O)(=O)c2cccs2)cc1 (centres undefined),inactive: -7.59%,
N#Cc1nc(/C=C/c2ccc(F)cc2)oc1NC1CCCCC1,inactive: -2.64%,
Cc1ccc(OCc2cc(=O)n3ccsc3n2)c(NC(=O)c2ccco2)c1,inactive: -3.12%,
COc1ccc(N(C)C(=O)C2CCN(S(=O)(=O)c3cc(Br)cc4c3N(C(C)=O)CC4)CC2)cc1,inactive: 0%,
COc1ccc(-c2nc3cc(NC(=O)c4cc5ccccc5o4)ccc3o2)cc1,inactive: 8.97%,
Cc1ccn2c(Nc3ccccc3C)c(-c3ccccc3)nc2c1,inactive: -16.4%,

Compound,"activity change, negative = inhibition",Potency
Cc1cccc(OCC(=O)Nc2ccccc2OCc2cc(=O)n3cc(C)ccc3n2)c1,inactive: -4.26%,
CCn1ccc2cc(S(=O)(=O)N3CCC(C(=O)NCc4ccc(F)cc4)CC3)ccc21,inactive: -20.4%,
O=C(Cn1c(=O)n2nc(-c3cccc(F)c3)nc2c2ccccc21)NCc1ccc(Cl)cc1,inactive: 0.65%,
COc1cccc(NC(=O)Cn2c(=O)n(Cc3ccco3)c(=O)c3cc(OC)c(OC)cc32)c1,inactive: -13.6%,
COc1ccccc1CNC(=O)CS(=O)(=O)Cc1nc(-c2ccccc2C)oc1C,inactive: -9.88%,
CN(C)c1ccc(C(=O)NCc2ccc3c(c2)CCN3C(=O)c2ccccc2)cc1,inactive: -26.8%,
CC(C)CCNC(=O)CSc1nc2ccccc2nc1Cc1ccc(Cl)cc1,inactive: -2.04%,
CC1CCN(c2nc(-c3ccc(Br)cc3)nc3ccccc23)CC1,inactive: -7.97%,
CN(C)c1ccc(CNC(=O)c2sc3ncccc3c2-n2cccc2)cc1,inactive: -32.6%,
Cc1cc(C)cc(NC(=O)CCN2C(=O)c3ccccc3Sc3ncccc32)c1,inactive: -17.1%,
CC1CCCCN1CCCNC(=O)Cn1ncc2c3ccccc3n(Cc3ccccc3F)c2c1=O (centres undefined),inactive: 2.44%,
Cc1ccc(-c2cc(C(F)(F)F)c(C#N)c(SCC(=O)Nc3ccccc3F)n2)cc1,inactive: -23.3%,
COc1cccc(CNC(=O)CN2C(=O)CSc3ccc(S(=O)(=O)N4CCCC4)cc32)c1,inactive: 2.22%,
Cc1cc(C)c(NC(=O)CN2C(=O)CCSc3ccc(S(=O)(=O)N4CCCC4)cc32)c(C)c1,inactive: -25.2%,
COCCn1c(C)cc(O)c(C(c2ccc(Cl)cc2)N2CCCCC2)c1=O (centres undefined),inactive: -11.9%,
COc1ccc(C2C(=O)N(C3CCCCC3)CC(=O)N2C2CCCCC2)cc1 (centres undefined),inactive: -8.56%,
O=C(c1ccccc1)N1CCCCC1CCN1CCCCC1 (centres undefined),inactive: -7.27%,
CCN(Cc1ccccc1)C(=O)C(CC(C)C)NS(=O)(=O)c1ccc2c(c1)CCN2C(C)=O (centres undefined),inactive: -16.2%,
Cc1ccc(-n2c(=O)c3ccccc3n(CC(=O)Nc3cccc(C(F)(F)F)c3)c2=O)cc1,inactive: -26.9%,
N#C/C(=C\c1ccc(Cl)cc1)c1nc(-c2cc3c(ccc4ccccc43)oc2=O)cs1,inactive: -0.596%,
O=C(Cn1c(=O)n(-c2ccccc2)c(=O)c2sc3ccccc3c21)NC1CCCC1,inactive: -9.06%,
O=C(CN1C(=O)CC(c2ccc(F)cc2)=Nc2ccccc21)NCc1ccccc1Cl,inactive: -23.7%,
